This is an account of results in patent US20200390870A1 (MINERVA BIOTECHNOLOGIES, published 2020).

The target of assay [1] is T1, PSMGFR peptide (Primary Sequence of the MUC1 Growth Factor Receptor).
T1 construct: synthetic peptide, immobilized on ELISA plates or attached to beads; also called MUC1* peptide; synthetic MUC1* extra cellular domain peptide
T1 peptide: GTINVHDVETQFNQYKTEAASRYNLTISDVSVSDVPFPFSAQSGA
Kind of assay: ELISA on PSMGFR peptide. The text has this: FIGS. 21A-21B show an ELISA graph of several anti-MUC1* scFv-Fc fusion proteins wherein the Fc region has been eliminated or mutated. Shown are hu MN-E6 scFv-Fc-wt, hu MN-E6 scFv-Fc-Y407R, hu MN-E6 scFv-Fc-hingeless, and hu MN-E6 scFv-Fc-Y407R-hingeless. All mutants bind to the PSMGFR peptide of the MUC1* extracellular domain (A). An ELISA graph of several anti-MUC1* scFv-Fc fusion proteins wherein the Fc region is either wild type or mutated. Shown are hu MN-E6 scFv-Fc-wt, hu MN-E6 scFv-Fc-hingeless, and hu MN-C3 scFv-Fc is shown (B). All bind to the PSMGFR peptide of the MUC1* extracellular domain.
A general note: In an ELISA, binding on a coated surface is turned into a signal by an enzyme label.

Assay [2] deals with T2, PSMGFR minus 10 amino acids from the C-terminus.
T2 construct: also called C-10; C-10 PSMGFR
T2 peptide: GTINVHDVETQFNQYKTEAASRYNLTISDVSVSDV
Kind of assay: ELISA on immobilized peptide.

Assay [3] addresses T3, PSMGFR minus 10 amino acids from the N-terminus.
T3 construct: also called N-10; N-10 PSMGFR
T3 peptide: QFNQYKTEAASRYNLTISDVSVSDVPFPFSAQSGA
Description: ELISA on immobilized peptide.

Assay [4] concerns the target T1, PSMGFR peptide (Primary Sequence of the …). Description: ELISA on immobilized peptide.

B1: hu MN-E6 scFv-Fc-hingeless (Fc fusion)
chain: EVQLVESGGGLVKPGGSLRLSCAASGFTFSRYGMSWVRQAPGKRLEWVSTISGGGTYIYYPDSVKGRFTISRDNAKNTLYLQMNSLRAEDTAVYYCTRDNYGRNYDYGMDYWGQGTLVTVSSGGGGSGGGGSGGGGSEIVLTQSPATLSLSPGERATLTCSATSSVSYIHWYQQRPGQSPRLLIYSTSNLASGIPARFSGSGSGSDYTLTISSLEPEDFAVYYCQQRSSSPFTFGSGTKVEIK[skipping human IgG1 Fc]
notes: also called humanized MN-E6 scFv-Fc-delta hinge; Dhinge
For B1, the binding result in assay [1] was “binds”.

B2: hu MN-E6 scFv-Fc-Y407R (Fc fusion)
chain: EVQLVESGGGLVKPGGSLRLSCAASGFTFSRYGMSWVRQAPGKRLEWVSTISGGGTYIYYPDSVKGRFTISRDNAKNTLYLQMNSLRAEDTAVYYCTRDNYGRNYDYGMDYWGQGTLVTVSSGGGGSGGGGSGGGGSEIVLTQSPATLSLSPGERATLTCSATSSVSYIHWYQQRPGQSPRLLIYSTSNLASGIPARFSGSGSGSDYTLTISSLEPEDFAVYYCQQRSSSPFTFGSGTKVEIK[skipping human IgG1 Fc with Y407R (EU numbers)]
notes: Fc mutant made to favour monomer; chain put together from the scFv and the mutated Fc entry
In the case of B2, in assay [1], the binding result is on record as “binds”.

B3: humanized MN-E6 scFv-Fc (wild type Fc) (Fc fusion)
chain: DAAQPAEVQLVESGGGLVKPGGSLRLSCAASGFTFSRYGMSWVRQAPGKRLEWVSTISGGGTYIYYPDSVKGRFTISRDNAKNTLYLQMNSLRAEDTAVYYCTRDNYGRNYDYGMDYWGQGTLVTVSSGGGGSGGGGSGGGGSEIVLTQSPATLSLSPGERATLTCSATSSVSYIHWYQQRPGQSPRLLIYSTSNLASGIPARFSGSGSGSDYTLTISSLEPEDFAVYYCQQRSSSPFTFGSGTKVEIK[skipping human IgG1 Fc]
notes: biotinylated for some tissue stainings; also called hu MN-E6 scFv-Fc; hu MN-E6 scFv-Fc-wt
B3: the binding result in assay [2] is listed as “no binding”; in assay [3], “binds”; in assay [4] it was “binds”.

B4: humanized MN-C3 scFv-Fc (Fc fusion)
chain: DAAQPAQVQLVQSGAEVKKPGASVKVSCKASGYTFTDYAMNWVRQAPGQGLEWMGVISTFSGNTNFNQKFKGRVTMTTDTSTSTAYMELRSLRSDDTAVYYCARSDYYGPYFDYWGQGTTLTVSSGGGGSGGGGSGGGGSDIVMTQTPLSLSVTPGQPASISCRSSQTIVHSNGNTYLEWYLQKPGQSPQLLIYKVSNRFSGVPDRFSGSGSGTDFTLKISRVEAEDVGVYYCFQGSHVPFTFGGGTKVEIKRT[skipping human IgG1 Fc]
notes: also called hu MN-C3 scFv-Fc
In the case of B4, in assay [1], the binding result is reported as “binds”.
